# Data taken from PubChem BioAssay AID1030 (National Center for Advancing Translational Sciences (NCATS), 2008).
# Out of some 220,000 compounds screened, about 16,000 (7.3%) were called active. This list was built around the results that the source calls inconclusive (neither active nor inactive); the mix of calls is not that of the screen. Calls follow the shape of the dose curve; as a rule, active = well fitted inhibition curve with a large enough effect (not every such curve was filed as active); inconclusive = small, poorly fitted or top-dose-only effect, or another doubt; inactive = no such curve, though single readings can be large or run the other way. No potency is given beside an inconclusive call; the fits are too rough.
# Target: Aldehyde dehydrogenase 1A1 (Homo sapiens) (UniProt P00352)
# UniProt P00352, sequence (P00352 whole entry, looked up): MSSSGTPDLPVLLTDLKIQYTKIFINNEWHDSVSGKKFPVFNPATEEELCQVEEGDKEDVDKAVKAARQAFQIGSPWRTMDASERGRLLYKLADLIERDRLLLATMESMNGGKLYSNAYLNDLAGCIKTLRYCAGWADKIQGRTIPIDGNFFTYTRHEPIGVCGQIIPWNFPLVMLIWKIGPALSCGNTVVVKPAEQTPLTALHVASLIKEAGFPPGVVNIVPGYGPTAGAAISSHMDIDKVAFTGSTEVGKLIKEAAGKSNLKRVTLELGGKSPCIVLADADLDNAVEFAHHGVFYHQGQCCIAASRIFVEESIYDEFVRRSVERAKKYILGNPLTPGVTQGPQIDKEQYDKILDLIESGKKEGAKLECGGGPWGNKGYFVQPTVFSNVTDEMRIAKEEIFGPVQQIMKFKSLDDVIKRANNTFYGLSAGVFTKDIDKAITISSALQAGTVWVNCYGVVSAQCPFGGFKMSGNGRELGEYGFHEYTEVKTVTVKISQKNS
# Experiment: qHTS Assay for Inhibitors of Aldehyde Dehydrogenase 1 (ALDH1A1);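 as to activity, negative = inhibition: plate controls were no enzyme wells and a reference inhibitor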
# Conditions: Purified ALDH1A1, NADH fluorescence, propionaldehyde substrate; series mostly up to 75.3 µM
# Potency is read from the fitted curve at half-maximal effect; tags tell the direction and shape of the fitted curve.
SMILES,Potency,"activity, negative = inhibition"
CC(C)CNC(=O)c1ccccc1-c1ccccc1C(=O)O,inactive,–
Cc1ccc(C(=O)N2CCN(c3ccccc3Cl)CC2)cc1[N+](=O)[O-],"inconclusive [inhibitor, single point]",–
CCOCCCn1c(=NC(=O)c2cccnc2)c(C(=O)OCC)cc2c(=O)n3ccccc3nc21,"inconclusive [inhibitor, partial curve]",–
O=C(/C=C/c1ccc(N2CCCCC2)c([N+](=O)[O-])c1)c1ccc(S(=O)(=O)N2CCCC2)cc1,active: 4.47 µM,–
CC(NC(=O)c1cc2ccccc2o1)c1ccccc1 (configuration not stated),"inconclusive [inhibitor, single point]",–
COc1cc(CNc2ccc(O)cc2)cc(Br)c1OCc1ccccc1F,active: 22.4 µM,–
CC(C)CCN(C(=O)Nc1ccc(Cl)cc1)C1CCN(C(C)C)CC1,inactive,–
Nc1nc(SCC(=O)NCCOCCO)nc2sc3c(c12)CCCC3,"inconclusive [inhibitor, single point]",–
S=c1[nH]nc(-c2n[nH]c3c2CCC3)n1/N=C/C=C/c1ccco1,active: 7.08 µM,–
Cn1c(=O)c2c(-c3ccc(C(C)(C)C)cc3)n(CC3CCCO3)cc2n(C)c1=O (configuration not stated),"inconclusive [inhibitor, single point]",–
CCc1cccc(CC)c1NC(=S)NC(C)c1ccccc1 (configuration not stated),inactive,–
CC(=O)c1sc(Nc2nc(C)cc(C)n2)nc1C,active: 0.891 µM,–
COc1cc(NS(=O)(=O)c2ccc(F)cc2)c(OC)cc1NC(C)=O,active: 7.94 µM,–
O=C(NCc1ccc2c(c1)OCO2)C1CC(=O)N(C2CCCCCCC2)C1 (configuration not stated),"inconclusive [inhibitor, partial curve]",–
Nc1nc(=S)c2ncn(C3CCCC3)c2[nH]1,"inconclusive [inhibitor, single point]",–
COc1ccccc1-c1cc(C(=O)NCCc2ccccc2)no1,"inconclusive [inhibitor, partial curve]",–
Cc1cccc(-c2nsc(SCC(=O)NCc3ccco3)n2)c1,"inconclusive [inhibitor, single point]",–
C/C(=N\Nc1cccc2cccnc12)c1ccc(C)cc1,"inconclusive [inhibitor, single point]",–
C=C1O[C@@](CO)(n2cnc3c(N)ncnc32)[C@H](O)[C@@H]1O,inactive,–
CC1(CC(=O)O)C(=O)N=C2C=CC=CN21 (configuration not stated),"inconclusive [inhibitor, partial curve]",–
CC(=O)CC(c1ccccc1)C1C(=O)Oc2ccccc2C1=O (configuration not stated),"inconclusive [inhibitor, single point]",–
O=C(O)/C=C/C(=O)Nc1c(F)cccc1F,"inconclusive [inhibitor, single point]",–
COc1ccc(C(=O)NCCCn2ccnc2)cc1,active: 7.94 µM,–
CC(C)CCN1C(=O)c2ccc(-c3nc4ccccc4c(=O)o3)cc2C1=O,active: 7.08 µM,–
Cc1c(C#N)c(N=CN(C)C)c(C(=O)c2ccc(Br)cc2)n1-c1ccccc1,active: 22.4 µM,–
Cc1ccc2ccc3cccc4ccc1c2c34,"inconclusive [inhibitor, single point]",–

SMILES,Potency,"activity, negative = inhibition"
Cn1c(=O)[nH]c(=O)c2c1nc(SCCN1CCOCC1)n2CCCc1ccccc1,inactive,–
Cn1c(=O)n(C)c2cc(NC(=O)c3cc4ccccc4o3)ccc21,"inconclusive [inhibitor, single point]",–
Cc1c(OCc2nn[nH]n2)ccc2c3c(c(=O)oc12)CCC(C)C3 (configuration not stated),"inconclusive [inhibitor, partial curve]",–
CC(C)CC(=O)N1CCN(S(=O)(=O)c2ccc3ccccc3c2)CC1,"inconclusive [inhibitor, single point]",–
O=C1OC(c2ccc(F)cc2)=C/C1=C\c1ccc([N+](=O)[O-])o1,active: 20 µM,–
Cc1[nH]c2ccccc2c1C(=O)CN1CCCCC1CCO (configuration not stated),"inconclusive [inhibitor, single point]",–
Cc1nc(C)n(CC(=O)N2CCCC(C(=O)c3cccc4ccccc34)C2)n1 (configuration not stated),inactive,–
Cc1ccccc1C(=O)Nc1cccc(N)c1,"inconclusive [inhibitor, single point]",–
Cc1ccc(NC(=O)COc2ccc(S(=O)(=O)N3CCOCC3)cc2)cc1,inactive,–
COC(=O)C/C=C\[C@@H](C)[C@@H](/C=N\O[C@@H](C)c1cn([C@H]2COC[C@H]2O)nn1)OC,–,inactive: 8.68% [at 13.5 µM]
O=[N+]([O-])c1ccc(CCO)cc1,inactive,–
O=C(N/N=C/c1ccccn1)c1ccc([N+](=O)[O-])cc1,inactive,–
CN(CC(=O)O/N=C(\N)c1cccc([N+](=O)[O-])c1)S(=O)(=O)c1ccccc1,"inconclusive [inhibitor, single point]",–
CN(C)Cc1ccccc1-c1cc(-n2ccnc2)ncn1,"inconclusive [inhibitor, single point]",–
COc1ccc(C2C3=C(Nc4ncnn42)c2ccccc2CC3)cc1OC (configuration not stated),inactive,–
O=C(NNC(=O)c1sc2cccc(Cl)c2c1Cl)NC1CCCCC1,active: 3.55 µM,–
C#Cc1ccc([C@@H]2C=C(C(=O)O)O[C@H](OCCCCO)C2)cc1,inactive,–
O=C(COc1ncnc2sccc12)NC1CCS(=O)(=O)C1 (configuration not stated),inactive,–
CN(C)Cc1ccccc1-c1cc(NCc2ccccc2)ncn1,"inconclusive [inhibitor, single point]",–
Cc1ccnc(SCC(=O)N2CCc3ccccc3C2)n1,active: 17.8 µM,–
CC1CCC(NC(=O)Cn2c3c(c(-c4ccccc4Cl)cc2=O)CCC3)CC1 (configuration not stated),"inconclusive [inhibitor, single point]",–
c1nc(NCCN2CCOCC2)c2sc3nc(N4CCOCC4)c4c(c3c2n1)CCC4,"inconclusive [inhibitor, single point]",–
COc1ccc(/C=C/C(=O)N(C)C2CCS(=O)(=O)C2)cc1OC (configuration not stated),"inconclusive [inhibitor, partial curve]",–
C=CCNC(=S)Nc1ccccc1,inactive,–
CCN(CC)CCNC(=O)Cn1c(-c2ccccn2)nc2ccccc21,"inconclusive [inhibitor, partial curve]",–
OCC#Cc1cnc2ccccc2c1,"inconclusive [inhibitor, single point]",–

SMILES,Potency,"activity, negative = inhibition"
COc1ccc(S(=O)(=O)Nc2cccnc2)c(Cl)c1Cl,"inconclusive [inhibitor, single point]",–
CN(C)c1ccc(NC(N)=S)cc1,active: 11.9 µM,–
Cc1ccc(NC(=S)Nc2ccc3nc(-c4ccccn4)c(-c4ccccn4)nc3c2)cc1C,active: 17.8 µM,–
COc1ccc(CN=C2NN=C(c3ccccc3)CS2)cc1,active: 4.47 µM,–
C=CCn1c(CNc2ccc(C)cc2)nnc1SCC(=O)N/N=C/c1ccc(O)cc1,active: 25.1 µM,–
Cc1ccc(NC(=O)c2ccccc2F)nc1,"inconclusive [inhibitor, single point]",–
O=C(O)CCC(=O)NNc1nc2ccccc2nc1-c1ccccc1,inactive,–
CC(C)c1nnc(NC(=O)C2CCCCC2)s1,inactive,–
O=C(c1c[nH]c(C(=O)N2CCN(c3ccccc3F)CC2)c1)c1cccc(Cl)c1Cl,"inconclusive [inhibitor, partial curve]",–
Cc1cc(C(=O)CN2C(=O)c3ccccc3S2(=O)=O)c(C)n1CC1CCCO1 (configuration not stated),"inconclusive [inhibitor, single point]",–
O=C(NC(NC(=S)Nc1ccc(Cl)cc1)C(Cl)(Cl)Cl)c1ccco1 (configuration not stated),"inconclusive [inhibitor, single point]",–
CCOC(=O)N1CCN(c2cc(NCCO)c([N+](=O)[O-])c3nonc23)CC1,inactive,–
CC1Cc2ccccc2N1C(=O)CSc1nnc(Cn2nnc3ccccc32)n1C (configuration not stated),active: 10 µM,–
O=C(O)C1CC=CCC1C(=O)NCCc1csc(-c2ccccc2)n1 (configuration not stated),"inconclusive [inhibitor, single point]",–
COC(=O)c1ccccc1NC(=O)COc1ccc(S(=O)(=O)NC(C)C)cc1,"inconclusive [inhibitor, partial curve]",–
Cn1c(=O)c(CCc2ccccc2)nc2cnc(N3CCNCC3)nc21,"inconclusive [inhibitor, partial curve]",–
O=C(O)c1nc(-c2ccccc2)[nH]c1C(=O)O,–,inactive: -7.63% [at 13.5 µM]
CCOc1ccccc1Nc1nnc(SCC(=O)NC(=O)c2cccn2C)s1,"inconclusive [inhibitor, single point]",–
O=C1CN(Cc2cc(=O)oc3cc4c(cc23)CCC4)CCN1,"inconclusive [inhibitor, partial curve]",–
Cc1ccc(Cn2c(SCC(=O)NCC3CCCO3)nc3c2c(=O)n(C)c(=O)n3C)cc1 (configuration not stated),active: 22.4 µM,–
N#Cc1cc2c(=O)n3ccccc3nc2n(CCCN2CCOCC2)c1=O,"inconclusive [inhibitor, partial curve]",–
Cc1nc2c(-c3ccc(F)cc3)c(C)nn2c(C)c1CCC(=O)N1CCN(c2ccc(F)cc2)CC1,inactive,–
Cc1cc(C)n(CC(=O)N/N=C/c2cc(Br)cc([N+](=O)[O-])c2O)n1,active: 20 µM,–
COc1ccc2nc(NC(=O)CSc3nnnn3C3CCCCC3)sc2c1,"inconclusive [inhibitor, partial curve]",–
CCOC(=O)/C(=C\c1ccc(Cl)cc1)c1nc2sc(C)c(C)c2c(=O)[nH]1,active: 25.1 µM,–
